Results taken from article PMC5836133.
Some of the results follow. At the low end of the ranking the order means little.

What follows are sequences tested on T1, GST-NbGlk1(82-244) (assay: protein-binding microarray). Details: NbGlk1 is a Golden2-like transcription factor of Nicotiana benthamiana; high values mean tight binding; most listed sequences are background and not binding sites; double strand, one strand shown.
T1 sequence: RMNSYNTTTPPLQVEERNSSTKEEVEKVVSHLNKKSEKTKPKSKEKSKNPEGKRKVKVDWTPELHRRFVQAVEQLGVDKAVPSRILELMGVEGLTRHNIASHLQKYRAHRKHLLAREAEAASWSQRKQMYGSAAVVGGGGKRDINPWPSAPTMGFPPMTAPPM
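Further: rank-based score ranging −0.5 to +0.5 with E above 0.45 taken as significant binding.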

Row | Sequence | binding signal [E-score]
1 | AGCGCAGA | -0.00562
2 | AGAAATCG | 0.338
3 | ACTGCTCC | -0.0435
4 | ATCTCTAA | 0.216
5 | AAGCGATG | -0.0189
6 | CACTCATG | -0.0769
7 | ACACTAAG | -0.0222
8 | ACTCCAAT | 0.0888
9 | CAAATCGA | 0.28
10 | ACCCATGC | -0.251
11 | CACCGATG | -0.121
12 | CAAGGTTC | -0.147
13 | AAGAGCCC | -0.256
14 | AACGACGG | -0.0607
15 | AAACCTCT | -0.222
16 | AAACCGCG | -0.00344
17 | ACTCATAA | 0.00568
18 | AGGTTTGA | -0.0238
19 | AGCAGGGG | -0.148
20 | AAGAGGTG | -0.191
21 | ATTCCTCC | 0.187
22 | AAGGACAT | -0.0376
23 | ACCCTCGG | -0.0322
24 | AGCTCAAG | -0.203
25 | ACTGTCGC | 0.0264

Row | Sequence | binding signal [E-score]
26 | AATCCACA | 0.419
27 | AGAAGCCT | -0.257
28 | AATCCGAC | 0.375
29 | ACCGTTGG | -0.183
30 | AAACTGGT | -0.116
31 | ACAAGGTC | -0.167
32 | ATTTGGCA | 0.161
33 | AGTCGAAT | 0.0338
34 | AACTATCA | 0.0505
35 | ACGGCTAG | -0.0966
36 | ACCGTTAG | 0.031
37 | AGACATAG | -0.0306
38 | AAATCAAA | 0.309
39 | CACTCTGC | -0.0259
40 | ACCCATAG | -0.172
41 | AGCGCAAG | -0.00368
42 | AGTAATAC | 0.0512
43 | AGCTGCCT | -0.204
44 | CAGATAAC | 0.165
45 | ACCCAGCC | -0.181
46 | ATATCTGC | 0.438
47 | ACATCTAC | 0.0411
48 | ATCCGGTA | 0.286
49 | ATGCAACC | -0.0952
50 | CACACCCC | -0.214

Row | Sequence | binding signal [E-score]
51 | AGATCGGG | 0.239
52 | ACTCGACC | -0.187
53 | ATGGTGAC | -0.26
54 | AAACCTTG | -0.0376
55 | CACGGGTA | -0.147
56 | AGAGAAAA | 0.0447
57 | AGCTCACA | -0.343
58 | ATGAGCAG | -0.107
59 | CAGAATGA | -0.0644
60 | AAAGGTAA | 0.0447
61 | ACCGTATA | 0.0842
62 | ATATGTTA | 0.148
63 | ACTGTAGG | -0.0914
64 | AGCTTCCC | -0.151
65 | AGATGCAT | -0.0143
66 | ATGTAAGG | -0.153
67 | AATTTGCT | 0.0921
68 | AACTATGT | -0.0318
69 | ACCCCTGG | -0.163
70 | AACGGTAA | 0.106
71 | ACTGGTAC | -0.262
72 | AGCCAAGG | -0.218
73 | CACGAAAA | 0.0136
74 | CACTAGAG | -0.0409
75 | AGTTGCAA | 0.0931

Row | Sequence | binding signal [E-score]
76 | AGCGGTCG | -0.232
77 | CAGAAAAG | 0.000659
78 | ATAGGACC | -0.189
79 | ACAGAGCT | -0.107
80 | ACACAACA | 0.0514
81 | ACAAACGA | 0.07
82 | AAATAACG | 0.0986
83 | ACATTAGC | 0.0282
84 | CACTAGTA | 0.00522
85 | AAACACAT | -0.0343
86 | AGATGGCA | -0.111
87 | AGTAACAT | 0.0145
88 | ATGGCTAC | -0.324
89 | AATGAGGA | -0.0512
90 | ACTGGCCT | -0.242
91 | AATAACTG | 0.062
92 | AGCAGGGA | -0.142
93 | ATCAGCAT | 0.211
94 | ATAGAGCA | -0.0102
95 | AATGTGTC | -0.0182
96 | AATTAAGC | 0.00875
97 | ATATAGTC | 0.00479
98 | AGAGGTAA | 0.0195
99 | AGGGAATG | 0.00941
100 | ACGTTAAA | 0.0939

Row | Sequence | binding signal [E-score]
101 | ATGGAGCG | -0.184
102 | ATAAATGC | -0.0113
103 | ACATATAA | 0.0975
104 | CACGAGCA | -0.117
105 | ACAAAGTA | -0.031
106 | AGACCTAG | -0.244
107 | ACGAGCTG | -0.132
108 | ATGCACAG | 0.0282
109 | AGTGTGAG | -0.0935
110 | AAATAGCG | 0.0624
111 | ATCGCGTA | 0.357
112 | AACCTTGT | -0.13
113 | CACTCCGA | -0.147
114 | AGCGACCC | -0.302
115 | ACCGAGGG | -0.226
116 | AGGCACCC | -0.274
117 | ACACTCCG | -0.103
118 | ACATCGGC | -0.12
119 | ACACATGC | -0.0831
120 | AGTCCAGC | -0.15
121 | ATTTGGGG | 0.126
122 | AGCTTTAG | -0.26
123 | ATCACCGA | 0.144
124 | AGTCCCCC | -0.165
125 | ACATCCAA | 0.0436

Row | Sequence | binding signal [E-score]
126 | CACAGGCA | -0.091
127 | AGCAAGGC | -0.181
128 | ATTCCGTC | 0.262
129 | ACCCAAAG | -0.191
130 | AACGCCAC | -0.226
131 | ACGATATA | 0.196
132 | ACAGTGTA | 0.105
133 | ATGTGATG | -0.0778
134 | ACGACTCG | -0.052
135 | AAGCCTCT | -0.272
136 | AAACGGCT | -0.136
137 | AGCAGTAT | 0.212
138 | AAGGAGAC | -0.288
139 | CAGCATAC | -0.0121
140 | AGAGGAGA | -0.0344
141 | ACACGTAA | 0.158
142 | ATCCACGG | 0.262
143 | CAGATAGG | -0.172
144 | AGTATCTG | 0.339
145 | ATCCAGTA | 0.326
146 | ACTCAAAC | -0.0808
147 | ATGATCAT | 0.13
148 | CACTTGAG | -0.0279
149 | CAGAGTGA | -0.0121
150 | ATGGTGGG | -0.173

Row | Sequence | binding signal [E-score]
151 | CAGCGACC | -0.231
152 | AGCTAACC | -0.2
153 | ACGGGGCA | -0.125
154 | AATGTCCC | -0.122
155 | ATCTCTCA | 0.295
156 | AGCAAAAC | 0.00119
157 | ATAATATG | 0.0759
158 | ATTATTGA | 0.136
159 | AAATCTCT | 0.392
160 | ATACGGCC | 0.0441
161 | ATACCTTC | 0.088
162 | ACGGGGGA | -0.0883
163 | AAAATACA | 0.203
164 | ACAATGGA | 0.0186
165 | AGCTAGGG | -0.211
166 | ACCCACGC | -0.222
167 | ACTATCAA | 0.013
168 | AAGTGACC | -0.0699
169 | ATTATTCA | 0.197
170 | ATGGAAGA | 0.0609
171 | AGGTGGAT | 0.193
172 | ACATCAAT | -0.0106
173 | ACGAGGAT | 0.218
174 | ATCTGAAT | 0.319
175 | ATTCGAAT | 0.221

Row | Sequence | binding signal [E-score]
176 | ACTGGGAA | 0.0151
177 | ACGTGTGC | -0.0723
178 | AGGAGGCA | -0.26
179 | CACTGCCA | -0.227
180 | ACGAATAT | 0.231
181 | ATGTTAGG | -0.0699
182 | AGCGGTAA | 0.105
183 | AGCACCTC | -0.219
184 | ACATAAGA | 0.0102
185 | AATCTCCT | 0.401
186 | AACACAAG | 0.0588
187 | ATCGTGTA | 0.262
188 | AGTCATAG | -0.128
189 | AGTTTCTA | -0.0593
190 | AATAACTA | -0.0153
191 | ATCCGTGC | 0.154
192 | CACTAAAG | 0.0275
193 | CAACGGGG | -0.0433
194 | AGGAGTAC | -0.146
195 | AAGGGGGT | -0.275
196 | ATGCTCCG | -0.0984
197 | AGCAGTCC | -0.194
198 | ACGCAACA | 0.064
199 | AAAACCAG | -0.173
200 | ACCTAAAT | 0.222

Row | Sequence | binding signal [E-score]
201 | AGCCTCTC | -0.251
202 | AGTTGACG | 0.0212
203 | AAATGGAA | -0.00517
204 | AAGATATG | 0.352
205 | AAGGACCT | -0.262
206 | ATCACGGG | 0.0315
207 | ACTCTGCT | -0.0847
208 | ATCGCTGG | 0.126
209 | AGGGCAGA | -0.124
210 | CAAGCCAG | -0.186
211 | CAAGTGAC | -0.074
212 | ACGTCAAA | -0.00516
213 | ATGCACTA | -0.0453
214 | AGAAATAT | 0.362
215 | AACGTTGA | -0.00981
216 | ACACCCTA | 0.00265
217 | ACCCACCA | -0.13
218 | CAGAAGTA | -0.0301
219 | ACGCGTCA | -0.132
